The record followed here is article PMC7904734, “ORP/Osh mediate cross-talk between ER-plasma membrane contact site components and plasma membrane SNAREs” (Cellular and Molecular Life Sciences: CMLS, 2020).

Protein sequences, listed by entry. Tags and fused reporters are not part of them.
UniProt P40357: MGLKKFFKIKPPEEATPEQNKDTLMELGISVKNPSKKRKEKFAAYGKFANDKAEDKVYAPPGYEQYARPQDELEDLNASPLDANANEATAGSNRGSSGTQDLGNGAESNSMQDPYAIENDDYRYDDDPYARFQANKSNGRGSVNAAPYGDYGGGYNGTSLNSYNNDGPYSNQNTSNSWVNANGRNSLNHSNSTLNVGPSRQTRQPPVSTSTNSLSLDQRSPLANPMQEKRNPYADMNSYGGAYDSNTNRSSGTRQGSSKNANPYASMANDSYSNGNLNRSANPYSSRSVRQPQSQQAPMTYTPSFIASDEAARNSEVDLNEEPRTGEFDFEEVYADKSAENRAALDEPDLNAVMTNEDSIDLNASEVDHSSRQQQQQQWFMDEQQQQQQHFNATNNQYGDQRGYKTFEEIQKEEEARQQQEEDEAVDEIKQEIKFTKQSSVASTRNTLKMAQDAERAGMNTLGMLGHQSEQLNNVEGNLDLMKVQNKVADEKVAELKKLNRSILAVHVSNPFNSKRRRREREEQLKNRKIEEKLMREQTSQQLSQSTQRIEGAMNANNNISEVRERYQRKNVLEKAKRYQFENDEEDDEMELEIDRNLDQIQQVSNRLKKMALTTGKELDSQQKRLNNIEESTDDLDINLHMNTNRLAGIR

Test [1] addresses T1, YFP(C)·Scs2p (S. cerevisiae) (UniProt P40075).
T1 sequence: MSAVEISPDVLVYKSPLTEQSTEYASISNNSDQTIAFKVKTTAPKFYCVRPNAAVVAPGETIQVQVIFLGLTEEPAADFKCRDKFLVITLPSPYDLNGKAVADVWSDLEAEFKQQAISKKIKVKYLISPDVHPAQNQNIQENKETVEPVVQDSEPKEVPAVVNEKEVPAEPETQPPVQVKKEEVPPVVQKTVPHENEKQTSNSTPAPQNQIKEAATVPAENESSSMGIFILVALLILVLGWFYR
The test can be described thus: split reporter; BiFC of YFP(N) and YFP(C) fusions in living wild type yeast cells grown at 24 °C, fluorescence microscopy; also in exocytosis mutants other than sec9-4 and with OSH3 overexpression (signals enhanced).

Test [2] addresses YFP(C)·Sec9p (S. cerevisiae) (UniProt P40357). The test is described as above.

Results are given in words; binding and its absence hold for the method and conditions named. Binding seen in cells or lysates may run through a third protein. Some results given as binding are weak or reduced against the parent protein; the word gives no strength. Tags and fused reporters may be left off the sequences shown.

B1: YFP(N)·Osh1p (protein, UniProt P35845 1-1188)
chain: MEQPDLSSVAISKPLLKLKLLDALRQGSFPNLQDLLKKQFQPLDDPNVQQVLHLMLHYAVQVAPMAVIKEIVHHWVSTTNTTFLNIHLDLNERDSNGNTPLHIAAYQSRGDIVAFLLDQPTINDCVLNNSHLQAIEMCKNLNIAQMMQVKRSTYVAETAQEFRTAFNNRDFGHLESILSSPRNAELLDINGMDPETGDTVLHEFVKKRDVIMCRWLLEHGADPFKRDRKGKLPIELVRKVNENDTATNTKIAIDIELKKLLERATREQSVIDVTNNNLHEAPTYKGYLKKWTNFAQGYKLRWFILSSDGKLSYYIDQADTKNACRGSLNMSSCSLHLDSSEKLKFEIIGGNNGVIRWHLKGNHPIETNRWVWAIQGAIRYAKDREILLHNGPYSPSLALSHGLSSKVSNKENLHATSKRLTKSPHLSKSTLTQNDHDNDDDSTNNNNNKSNNDYDDNNNNNNNDDDDYDDDDESRPLIEPLPLISSRSQSLSEITPGPHSRKSTVSSTRAADIPSDDEGYSEDDSDDDGNSSYTMENGGENDGDEDLNAIYGPYIQKLHMLQRSISIELASLNELLQDKQQHDEYWNTVNTSIETVSEFFDKLNRLTSQREKRMIAQMTKQRDVNNVWIQSVKDLEMELVDKDEKLVALDKERKNLKKMLQKKLNNQPQVETEANEESDDANSMIKGSQESTNTLEEIVKFIEATKESDEDSDADEFFDAEEAASDKKANDSEDLTTNKETPANAKPQEEAPEDESLIVISSPQVEKKNQLLKEGSFVGYEDPVRTKLALDEDNRPKIGLWSVLKSMVGQDLTKLTLPVSFNEPTSLLQRVSEDIEYSHILDQAATFEDSSLRMLYVAAFTASMYASTTNRVSKPFNPLLGETFEYARTDGQYRFFTEQVSHHPPISATWTESPKWDFYGECNVDSSFNGRTFAVQHLGLWYITIRPDHNISVPEETYSWKKPNNTVIGILMGKPQVDNSGDVKVTNHTTGDYCMLHYKAHGWTSAGAYEVRGEVFNKDDKKLWVLGGHWNDSIYGKKVTARGGELTLDRIKTANSATGGPKLDGSKFLIWKANERPSVPFNLTSFALTLNALPPHLIPYLAPTDSRLRPDQRAMENGEYDKAAAEKHRVEVKQRAAKKEREQKGEEYRPKWFVQEEHPVTKSLYWKFNGEYWNKRKNHDFKDCADIF
In the case of B1, the binding entry in test [1] and in test [2] was “binds” each time.

B2: YFP(N)·Osh2p (protein, UniProt Q12451 1-1283)
chain: MSREDLSIAEDLNQVSKPLLKVKLLEVLGQGDFKHLKALVDNEFQPKDDPSVQQVLNLILHYAVQVAPILLIKEIVAHWVDQVGDEKSSSKSDDGIHLDLNYQDENGNTPLHLAAAQSRSDVISFLLSQKSINDCVKNKAHQQPLDMCKDLNVAQMIQLKRDDYFLETVHSLRAAMNKRDFSKLDSIWKNPRNLNLLDINGIDPETGTTLLYEYSQKKDIEMCQWLLKHGAEATVKDGKGRSPLDLVKNIKLPAKPSNNVTPEIKLKNLLEKNLREQAIVHEDVASSKPPTYKGFLKKWTNFAHGYKLRWFILSGDGNLSYYKDQSHVDRPRGTLKVSTCRLHIDSSEKLNFELLGGITGTTRWRLKGNHPIETTRWVNAIQSAIRFAKDKEILNKKKAVPPSLALKNKSPALISHSKTQGSLPEASQYYQHTLHKEVIQPSSVSLYRRPSNNLSVVSSEIQLNDNLTESGKRFVSKMIENRLDGSKTPVGVHTGSALQRVRSSNTLKSNRSMQSGSGVASPIDKVPNGANLSQSNTTTGSTASLSDNNYIDNFEGDEANSDDEEEDLGINFDRDEEYIKAQYGPYKEKLDMYEQAISIELSSLIELIEQEEPSPEVWLTIKKSLINTSTIFGKLKDLTYKRDKRLVDMVSKQGDVNNVWVQSVKELEMELSNKTERLASIDKERRGLKKILHKKLLESHATAGNKESLENDKEQESDTTASTLGQIAKFISATKEEDEASDADEFYDAAELVDEVTELTEAHPEISTAAAPKHAPPPVPNETDNDSQYVQDEKSKIESNVEKTSQKFEKQNNLVTEDEPKTDQSLKNFKAEDKESQVKEKTKEIASSVIGEKTIVAVTTVQKRKEEYLLKEGSYLGYEDGIRKRLSMDKDDRPKISLWAVLKSMVGKDMTRMTLPVTFNEPTSLLQRVAEDLEYSELLDQAATFEDSTLRTLYVAAFTASSYASTTKRVAKPFNPLLGETFEYSRPDKQYRFFTEQVSHHPPISATWTESPRWDFWGESFVDTKFNGRSFNVKHLGLWHIKLRPNDNEKEELYTWKKPNNTVIGILIGNPQVDNHGEVNVVNHTTGDHCKLYFKARGWRSSGAYEITGEVYNKKKQKVWILGGHWNEAIFAKKVVKDGDLSLEKTRTAASAGNGPTDDGTKFLIWKANDRPEEPFNLTPFAITLNAPQPHLLPWLPPTDTRLRPDQRAMEDGRYDEAGDEKFRVEEKQRAARRKREENNLEYHPQWFVRDTHPITKAKYWRYTGKYWVKRRDHDLKDCGDIF
For the molecule B2, the binding result in test [1] and in test [2] was “binds” each time.
